Data from PubChem BioAssay AID686979 (National Center for Advancing Translational Sciences (NCATS), 2013).
The campaign covered roughly 420,000 compounds. About 50,000 (12%) were called active. The inconclusive results got no clear call from the source; some entries with a clear call stand among them for comparison. Calls come from the whole dose curve; as a rule, active = well fitted inhibition curve with a large enough effect; inconclusive = small, poorly fitted or top-dose-only effect; inactive = flat fitted curve, though single readings scatter. Potencies of inconclusive entries are left out as doubtful fits.
% is set by controls: 0 for no effect and ±100 for the full control effect; potency is the fitted concentration of half-maximal effect; tags give direction and shape of the fitted curve.

Assay: qHTS for Inhibitors of human tyrosyl-DNA phosphodiesterase 1 (TDP1): qHTS in cells in presence of CPT; note: nearly all actives have a fitted effect of over 55% in size
Conditions: chicken DT40 Tdp1-/-;hTDP1 cells + 20 nM CPT, ATP luminescence, 48 h; activity change, negative = growth inhibition: at 46.2 µM (top of the series)
Method in brief: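 Cell growth measured by CellTiter-Glo luminescence after a minimum 48 h, 37 C compound exposure with 20 nM CPT in Tdp1-knockout DT40 cells stably expressing hTDP1, seeded 400/well; qHTS titration format.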
In the case of `Cc1ccc(CN(Cc2ccco2)C(=O)COc2ccccc2C)cc1`, the Potency is reported as active: 20.6 µM. With `COc1ccc2oc(C(=O)OCC(=O)N(CC(C)C)c3c(N)n(Cc4ccccc4)c(=O)[nH]c3=O)c(C)c2c1` the Potency was inconclusive [inhibitor, partial curve, poor fit]. With `CC1(C(=O)NS(=O)(=O)c2ccc(Br)cc2)CCN1C(=O)Cc1cccs1` (stereo unspecified) the “activity change, negative = growth inhibition” value was inactive: 3.13%. With `CC(C)c1ccc(OCC(=O)Nc2ccccc2C(=O)N2CCOCC2)cc1` the Potency was inconclusive [inhibitor, single point]. With `O=c1sc(N2CCN(c3ccccc3F)CC2)nc2ccsc12` the Potency was inconclusive [inhibitor, single point]. For `Cc1cc2ncc(C(=O)Nc3ccsc3C(=O)O)c(C)n2n1`, the “activity change, negative = growth inhibition” value was inactive: 13.1%. For `COC(=O)C(C)Sc1ncnc2c1c(-c1ccccc1)cn2-c1ccc(OC)cc1` (stereo unspecified), the Potency was inconclusive [inhibitor, single point]. With `OC(CN1CCN(c2ccccn2)CC1)Cn1c2ccc(Cl)cc2c2cc(Cl)ccc21` (stereo unspecified) the Potency was inconclusive [inhibitor, single point]. In the case of `CC(=O)c1ccc(NC(=O)CCc2c(C)nc3c(c(C)nn3-c3ccc(C)cc3)c2C)cc1`, the Potency is reported as inconclusive [inhibitor, single point]. In the case of `O=C(c1ccccc1)N1CCN(C2C3CC4CC(C3)CC2C4)CC1` (stereo unspecified), the Potency is reported as inconclusive [inhibitor, single point]. With `COc1ccccc1NC(c1ccc(Cl)cc1)c1nnc(-c2cccc(F)c2)o1` (stereo unspecified) the Potency was inconclusive [inhibitor, single point]. In the case of `Cc1ccccc1Cn1c(=O)[nH]c2ccccc21`, the “activity change, negative = growth inhibition” value is reported as inactive: -15.8%. For `O=C(Cn1c(SCc2cccc(F)c2)nc2cccnc21)Nc1ccc(F)c(Cl)c1`, the Potency was active: 25.9 µM. In the case of `CC1CCN(c2ccc3nnc(CCC(=O)N4CCN(c5ccccc5F)CC4)n3n2)CC1`, the Potency is reported as active: 23.1 µM. In the case of `Cc1ccc(C)c(Cn2nnc3c(=O)[nH]c(C4CCCN(C(=O)c5ccco5)C4)nc32)c1` (stereo unspecified), the Potency is reported as inconclusive [inhibitor, single point]. In the case of `O=C(CSc1nnc(-c2cccnc2)o1)c1cc2ccccc2oc1=O`, the Potency is reported as inconclusive [inhibitor, single point]. With `COc1cccc(CN2CCN(C3CCN(c4ccccc4C)CC3)CC2CCO)c1` (stereo unspecified) the Potency was inconclusive [inhibitor, single point]. With `COc1cc(CN2CCC3(CCC(CNC(=O)c4cc(C)nn4C)O3)CC2)ccc1F` (stereo unspecified) the Potency was inconclusive [inhibitor, single point]. With `CN(C)S(=O)(=O)c1cccc(NC(=O)C2CCN(S(=O)(=O)c3cccs3)CC2)c1` the Potency was inconclusive [inhibitor, single point]. With `COc1ccccc1C(=O)Nc1cccc(C(=O)c2ccccc2)c1` the Potency was inconclusive [inhibitor, single point]. For `CCOc1ccc(S(=O)(=O)Nc2cccc(C(=O)NCC3(N4CCCCC4)CCCCC3)c2)cc1`, the Potency was inconclusive [inhibitor, single point]. With `COc1ccc(CCn2c3c(c(=O)[nH]c2=S)CN(Cc2ccccc2)CN3)cc1OC` the Potency was inconclusive [inhibitor, partial curve]. With `Cc1ccc(OCc2cc(C(=O)NCc3ccc(OC(F)(F)F)cc3)no2)cn1` the Potency was inconclusive [inhibitor, single point]. For `Cc1cc(NCc2ccccc2)c2ccccc2n1`, the Potency was active: 20.6 µM. With `CN(c1ccccc1)S(=O)(=O)c1ccc(NC(=O)c2cccs2)cc1` the Potency was inconclusive [inhibitor, single point]. In the case of `Nc1nnc(-c2ccc(Cl)cc2)o1`, the “activity change, negative = growth inhibition” value is reported as inactive: -27.7%. With `Cc1nn2c(=O)cc(CN(C)c3ccccc3)nc2s1` the “activity change, negative = growth inhibition” value was inactive: 5.69%. In the case of `CCOC(=O)c1ccccc1NC(=O)CSc1ncc(CO)n1Cc1ccc(C)cc1`, the Potency is reported as active: 14.6 µM. With `O=C(Nc1ccc2oc(=O)ccc2c1)c1ccc(-c2cccc([N+](=O)[O-])c2)o1` the Potency was active: 8.2 µM. In the case of `CCOC(=O)c1c(CSC(=N)N)n(-c2ccccc2)c2cc(Br)c(OC(C)=O)cc12`, the Potency is reported as inconclusive [inhibitor, single point]. With `COc1ccc(/C=N/Nc2ncnc3sc(C)c(C)c23)cc1` the Potency was active: 2.91 µM. For `CCCNC(=O)C1(C)CCCN(C(=O)c2cc(F)cc(F)c2)C1` (stereo unspecified), the “activity change, negative = growth inhibition” value was inactive: 5.84%. For `COc1ccc(CCNC(=O)Cc2cc3c(cc2[N+](=O)[O-])OCO3)cc1OC`, the “activity change, negative = growth inhibition” value was inactive: -22.7%. In the case of `Cc1ccc(/C=C(\C#N)C(=O)Nc2c(C)cccc2C)s1`, the activity change, negative = growth inhibition is reported as inconclusive: -35.6% [inhibitor]. With `CSc1cccc(NC(=S)N2CCCN(Cc3ccc(F)cc3)C2)c1` the Potency was inconclusive [inhibitor, single point]. For `COc1ccc(/C=C/C(=O)c2ccc(OC)cc2O)cc1`, the Potency was inconclusive [inhibitor, partial curve, poor fit]. For `CC(=O)N1CCN(c2ccc(NCc3ccc(F)cc3)cc2)CC1`, the “activity change, negative = growth inhibition” value was inactive: -19.6%. For `CC1(C)NC(=O)N(CCOCCOc2ccccc2-c2ccccc2)C1=O`, the Potency was inconclusive [inhibitor, full curve]. With `CC(C)(C)c1ccc(Cn2c(Cc3ccccc3)nc3ccccc32)cc1` the Potency was active: 7.31 µM. With `CCC1CCc2sc(C(=O)NCC3CCCO3)cc2C1` (stereo unspecified) the Potency was inconclusive [inhibitor, single point]. In the case of `Cc1ccc(S(=O)(=O)Nc2ccc3c(c2)C(=O)N([C@H](C)CO)C[C@H](C)[C@@H](CN(C)Cc2ccccc2)O3)cc1`, the “activity change, negative = growth inhibition” value is reported as inactive: -7.35%. With `C/C(=N\NC(N)=S)c1cc(-c2ccccc2)c(-c2ccccc2)s1` the Potency was inconclusive [inhibitor, single point]. In the case of `O=C(OCCCOc1ccc(F)cc1)c1ccc(O)cc1O`, the “activity change, negative = growth inhibition” value is reported as inactive: -20%. With `COc1ccccc1/C=C/c1nc(S(=O)(=O)c2ccccc2)c(N(C)C)o1` the Potency was inconclusive [inhibitor, single point]. With `O=C(c1ccoc1)N1CCC2(CC1)Oc1ccc(Cl)cc1C(=O)C21CC(c2ccc(Cl)cc2)=NO1` (stereo unspecified) the Potency was active: 20.6 µM. With `Cc1ccc(O)c(-c2cc(C(=O)NCc3ccccc3)[nH]n2)c1` the “activity change, negative = growth inhibition” value was inactive: 0.134%. For `O=C(COc1ccccc1Cl)Nc1cc(-c2ccccc2F)nn1-c1ccccc1`, the Potency was inconclusive [inhibitor, partial curve, poor fit]. In the case of `COCCn1c(=S)[nH]c2cc(C(=O)N3CCN(c4cccc(Cl)c4)CC3)ccc2c1=O`, the Potency is reported as active: 20.6 µM. For `COc1cc(Cl)c(C)cc1NC(=O)CN1CCN(C(=O)C2CC2)CC1`, the Potency was inconclusive [inhibitor, single point]. In the case of `c1ccc(-c2noc(CN3CCc4sccc4C3)n2)cc1`, the “activity change, negative = growth inhibition” value is reported as inactive: -2.69%. For `O=C(/C=C/c1ccccn1)c1cc(Br)ccc1O`, the Potency was active: 23.1 µM. In the case of `O=C(c1c(F)cccc1F)N(Cc1ccccn1)C1CC1`, the “activity change, negative = growth inhibition” value is reported as inactive: -25.6%. In the case of `COc1ccc(NC(=O)COC(=O)C2CCC2)cc1Cl`, the “activity change, negative = growth inhibition” value is reported as inactive: 5.93%. With `Cc1cc(C)cc(NC(=O)CN(c2cc(C(F)(F)F)ccc2Cl)S(=O)(=O)c2ccccc2)c1` the Potency was inconclusive [inhibitor, partial curve, poor fit]. For `O=C(Cn1cncn1)NCCC(c1ccccc1)c1ccccc1`, the “activity change, negative = growth inhibition” value was inactive: -10.2%. In the case of `COc1ccc2ccccc2c1CN1CCc2nnc(C(NS(C)(=O)=O)C(C)C)n2CC1` (stereo unspecified), the Potency is reported as inconclusive [inhibitor, single point]. In the case of `Cn1c(-c2ccccc2)nc2cnccc21`, the Potency is reported as inconclusive [inhibitor, single point]. For `COCCCNC(=O)c1ccc(Cn2c(=O)c3ccccc3n(CC(=O)NCc3ccco3)c2=O)cc1`, the Potency was inconclusive [inhibitor, single point]. In the case of `COc1ccc(C2CC3(CC(C)(C)NC(=S)N3)Oc3cc(O)cc(C)c32)cc1OC` (stereo unspecified), the Potency is reported as inconclusive [inhibitor, single point]. For `Cn1c(=O)c(-c2ccc(Cl)cc2)nc2cnc(Oc3cccc(Cl)c3)nc21`, the “activity change, negative = growth inhibition” value was inactive: -21.5%. In the case of `CC1=NN(C(=O)c2cc(C)nn2C)C(O)(C(F)(F)F)C1` (stereo unspecified), the Potency is reported as active: 0.651 µM. In the case of `CCOC(=O)C1CCN(Cc2ccc(O)c(OC)c2)CC1`, the Potency is reported as inconclusive [inhibitor, single point]. With `N#Cc1ccc(-c2cccnc2)nc1SCc1ccc(Cl)cc1Cl` the “activity change, negative = growth inhibition” value was inactive: -11.5%. In the case of `Cc1nc(S/C(=C/c2ccc(-c3ccc(Cl)cc3)o2)C(=O)O)n[nH]1`, the Potency is reported as inconclusive [inhibitor, single point]. For `COc1ccc(OC)c(/C=N/N(CCC#N)C2=NS(=O)(=O)c3ccccc32)c1`, the Potency was inconclusive [inhibitor, single point]. In the case of `O=C(CCS(=O)(=O)c1nc(-c2cccs2)cc(C(F)(F)F)n1)Nc1ccc(OC(F)(F)F)cc1`, the Potency is reported as inconclusive [inhibitor, partial curve]. For `C/C(=N\NC(=O)c1ccc(O)cc1)c1ccc(NC(=O)Cc2ccccc2)cc1`, the Potency was inconclusive [inhibitor, single point]. For `O=C(c1cc([N+](=O)[O-])ccc1N1CCCCC1)N1CCc2ccccc21`, the Potency was active: 14.6 µM. With `O=C(NC(=S)Nc1ccccc1N1CCOCC1)c1ccc(Br)cc1` the Potency was inconclusive [inhibitor, single point]. With `CN1CCN(C2=Cc3ccccc3Sc3cc(F)ccc32)CC1` the Potency was inconclusive [inhibitor, single point]. With `CC(=O)Nc1ccc(Oc2cnc3ccccc3n2)cc1` the Potency was inconclusive [inhibitor, single point].
